{"source": "PubChem BioAssay AID624171", "about": "(National Center for Advancing Translational Sciences (NCATS), 2012)", "note": "About 1,200 (0.29%) of roughly 410,000 compounds were called active. The inconclusive results got no clear call from the source; some entries with a clear call stand among them for comparison. Calls come from the whole dose curve; as a rule, active = well fitted activation curve with a large enough effect; inconclusive = small, poorly fitted or top-dose-only effect; inactive = flat fitted curve, though single readings scatter. Potencies of inconclusive entries are doubtful fits and often do not repeat. Potency is the fitted concentration of half-maximal effect; tags give direction and shape of the fitted curve.", "data": [{"assay": "qHTS of Nrf2 Activators; note: nearly all actives have a fitted effect of over 65% in size; for activation: % of control where 0% means no effect", "conditions": "AREc32 ARE-luciferase reporter (MCF7-derived line), luminescence, 24 h; activation: at 46.1 µM (top of the series)", "in_short": "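Each well held 1000 AREc32 cells, which were incubated with compound for 24 hr at 37 deg C after overnight attachment, and ARE reporter activity was quantified by firefly luciferase luminescence.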", "values": [{"smiles": "C=CCNC(=O)/C(C#N)=C/c1ccccc1[N+](=O)[O-]", "Potency": "inconclusive: 20 µM [activator, single point]"}, {"smiles": "O=C1C2=C(CCCC2)C(=O)N1c1cccc(OCCBr)c1", "Potency": "inconclusive: 11.2 µM [activator, partial curve, poor fit]"}, {"smiles": "CCOc1cc(N2CCOCC2)c(OCC)cc1NC(=O)COC(=O)CCOc1cc(C)ccc1C", "Potency": "inconclusive: 35.5 µM [activator, partial curve, poor fit]"}, {"smiles": "O=C(COc1ccccc1)NCC1CCCO1", "note": "(stereo unspecified)", "Potency": "inconclusive: 15.8 µM [activator, single point]"}, {"smiles": "CCCCn1c(O)c(N=Nc2ccccn2)c2ccccc21", "Potency": "inconclusive: 3.16 µM [activator, full curve, poor fit]"}, {"smiles": "COc1ccc(OCc2nc3c4c(ncn3n2)-c2ccccc2CC42CCCC2)cc1", "activation": "inactive: -0.294%"}, {"smiles": "CC1=NC(=O)C(N=Nc2cccc(O)c2)N1c1ccccc1", "note": "(stereo unspecified)", "Potency": "inconclusive: 6.31 µM [activator, full curve]"}, {"smiles": "O=C(NCCc1ccc(F)cc1)c1coc(=O)c(Br)c1", "Potency": "inconclusive: 3.16 µM [activator, single point]"}, {"smiles": "CCCCC(O)(CCCC)C(=O)NN(C(=O)CCl)c1ccccc1", "Potency": "inconclusive: 31.6 µM [activator, single point]"}, {"smiles": "CCc1ccc(OC)c(S(=O)(=O)Nc2ccc(Cc3ccncc3)cc2)c1", "activation": "inactive: 6.87%"}, {"smiles": "Nc1nc(Nc2ccccc2F)nc(NCc2ccco2)c1[N+](=O)[O-]", "Potency": "inconclusive: 3.16 µM [activator, full curve, poor fit]"}, {"smiles": "O=C(c1ccco1)N1CCN(CC(O)COc2ccc3oc4ccccc4c3c2)CC1", "note": "(stereo unspecified)", "activation": "inactive: 5.62%"}, {"smiles": "COc1ccc(S(=O)(=O)Nc2cc3c(cc2N2CCOCC2)n(C)c(=O)n3C)cc1", "Potency": "inconclusive: 14.1 µM [activator, single point]"}, {"smiles": "N#Cc1nccnc1S(=O)(=O)c1cccs1", "Potency": "inconclusive: 28.2 µM [activator, single point]"}, {"smiles": "COc1ccccc1C(=O)Nc1ccccn1", "Potency": "active: 11.2 µM"}, {"smiles": "CCCNC(=O)N1C2=NC(C(=O)OC)=C(C(=O)OC)[C@@H]3N(Cc4ccccc4)c4ccccc4[C@]23C[C@H]1CO", "activation": "inactive: 0.642%"}, {"smiles": "CC(C)Sc1nc(N)nc(-c2cccs2)c1C#N", "Potency": "inconclusive: 22.4 µM [activator, single point]"}, {"smiles": "O=C(C=Cc1ccccn1)c1ccccc1", "Potency": "inconclusive: 5.01 µM [activator, single point]"}, {"smiles": "CCn1c(=O)c(=O)[nH]c2cc(C(=O)NC3CCCc4ccccc43)ccc21", "note": "(stereo unspecified)", "activation": "inactive: -0.119%"}, {"smiles": "O=[N+]([O-])c1cccc(N2Cc3ccccc3C2)c1", "Potency": "inconclusive: 7.08 µM [activator, partial curve, poor fit]"}, {"smiles": "CN1CCN(C(=O)CCCN2C(=O)/C(=C/c3cccc(Br)c3)SC2=S)CC1", "Potency": "active: 12.6 µM"}, {"smiles": "COc1ccc(-c2cc(C(=O)NCCc3ccc(OC)c(OC)c3)c3ccccc3n2)cc1", "activation": "inactive: 5.81%"}, {"smiles": "O=C1CN(C(=O)Nc2ccccc2Cl)C(c2ccccc2)c2c(sc3c2CCCC3)N1", "note": "(stereo unspecified)", "activation": "inactive: -0.0071%"}, {"smiles": "Cc1cccnc1NC(=O)c1sc2ccccc2c1Cl", "Potency": "inconclusive: 0.794 µM [activator, full curve, poor fit]"}, {"smiles": "O=C1c2ccccc2-c2onc3ccc(NCc4ccco4)c1c23", "Potency": "inconclusive: 20 µM [activator, single point]"}, {"smiles": "COc1cccc2cc(C(=O)C3=C(O)C(=O)N(CCN4CCOCC4)C3c3ccc(C)o3)oc12", "note": "(stereo unspecified)", "Potency": "inconclusive: 10 µM [activator, partial curve]"}, {"smiles": "O=c1c(N2CCCCC2)csc2ccc(F)cc12", "activation": "inactive: 1.13%"}, {"smiles": "Cc1ccc(S(=O)(=O)N(C)C)cc1NC(=O)COC(=O)/C=C/c1ccc2ccccc2n1", "Potency": "inconclusive: 20 µM [activator, partial curve, poor fit]"}, {"smiles": "CCC(CO)Nc1ccn2nc(-c3cc(OC)c(OC)c(OC)c3)cc2n1", "note": "(stereo unspecified)", "activation": "inactive: 14.4%"}, {"smiles": "O=C(NCc1cccnc1)/C(=C\\c1ccc(-c2ccc(Br)cc2)o1)S(=O)(=O)c1ccccc1", "Potency": "inconclusive: 5.62 µM [activator, single point]"}, {"smiles": "O=C(CN1CCS(=O)(=O)CC1)N/N=C/c1cccc(C(F)(F)F)c1", "Potency": "inconclusive: 3.16 µM [activator, full curve]"}, {"smiles": "CC(C)Cn1cc(C(=O)N2CCC(C)CC2)c2c3ccccc3n(C)c2c1=O", "activation": "inactive: 1.75%"}, {"smiles": "Cc1ccc(NC(=O)Cn2nc(C(=O)O)c3ccccc3c2=O)c([N+](=O)[O-])c1", "Potency": "inconclusive: 22.4 µM [activator, single point]"}, {"smiles": "COC(=O)N/N=C1\\CCCc2ccccc21", "activation": "inactive: 0.291%"}, {"smiles": "COc1ccc(NC(=O)c2ccc(COCC(F)(F)C(F)F)cc2)cc1OC", "activation": "inactive: 0.483%"}, {"smiles": "C/C(=N\\Nc1ccc2nncn2n1)c1ccc(Cl)s1", "Potency": "active: 7.94 µM"}, {"smiles": "Cc1cccn2c(NCc3ccc4c(c3)OCO4)c(-c3ccc(O)cc3)nc12", "Potency": "inconclusive: 17.8 µM [activator, single point]"}, {"smiles": "COc1ccccc1NC(=O)c1ncoc1-c1ccco1", "Potency": "inconclusive: 5.62 µM [activator, full curve, poor fit]"}, {"smiles": "CN(C)c1cccc(C(=O)Nc2nc3ccccc3[nH]2)c1", "activation": "inactive: -1.55%"}, {"smiles": "CCc1ccc2oc(-c3ccc(N)cc3)nc2c1", "Potency": "inconclusive: 3.55 µM [activator, partial curve, poor fit]"}, {"smiles": "Oc1c(Br)cc(Br)c2cccnc12", "activation": "inactive: 3.37%"}, {"smiles": "COc1cccc(-c2noc(-c3ccoc3C)n2)c1", "Potency": "inconclusive: 6.31 µM [activator, partial curve, poor fit]"}, {"smiles": "CCCn1nc([N+](=O)[O-])c(C(C#N)c2nc3ccccc3s2)c(Cl)c1=O", "note": "(stereo unspecified)", "Potency": "inconclusive: 2.82 µM [activator, full curve, poor fit]"}, {"smiles": "Cc1cccc(N=C2NC(=O)/C(=C/C=C/c3ccco3)S2)c1C", "Potency": "inconclusive: 12.6 µM [activator, partial curve, poor fit]"}, {"smiles": "CN(C)/C=C1/C=C(c2ccccc2)OC1=O", "Potency": "inconclusive: 28.2 µM [activator, single point]"}, {"smiles": "COc1ccc(C(=O)NNC(=O)CCc2nc3ccccc3c(=O)[nH]2)cc1", "activation": "inactive: -0.112%"}, {"smiles": "CN(c1ccccc1C(=O)Nc1cccc([N+](=O)[O-])c1)S(=O)(=O)c1ccccc1", "Potency": "inconclusive: 15.8 µM [activator, single point]"}, {"smiles": "Cc1c(C(=O)Nc2ccccn2)oc2ccc(Br)cc12", "Potency": "inconclusive: 4.47 µM [activator, partial curve]"}, {"smiles": "CC(C)(C)c1ccc(-n2ncc3c2CCCC3NC(=O)CCC2=NNC(=O)CC2)cc1", "note": "(stereo unspecified)", "activation": "inactive: 4.47%"}, {"smiles": "Nc1cccc2c1C(=O)N(C(=O)/C=C/c1ccc(F)cc1)C2=O", "Potency": "inconclusive: 12.6 µM [activator, partial curve]"}, {"smiles": "Cc1ccc2oc(-c3cccc(NC(=O)C4CCCO4)c3)nc2c1", "note": "(stereo unspecified)", "Potency": "inconclusive: 6.31 µM [activator, partial curve, poor fit]"}, {"smiles": "CS(=O)(=O)c1nc(S(=O)(=O)c2ccc(Cl)cc2)c(N2CCN(CCO)CC2)s1", "Potency": "inconclusive: 5.01 µM [activator, full curve]"}, {"smiles": "Fc1ccc(-c2csc(Nc3ccccn3)n2)c(F)c1", "Potency": "inconclusive: 2.51 µM [activator, partial curve, poor fit]"}, {"smiles": "COCCNC(=O)CSc1c2c(nc3ccc(Cl)cc13)CCCC2", "Potency": "inconclusive: 22.4 µM [activator, single point]"}, {"smiles": "O=c1[nH]nc(Sc2ncnc3sccc23)n1CCc1ccccc1", "Potency": "inconclusive: 3.16 µM [activator, single point]"}, {"smiles": "C=CCSC(=C(C#N)C#N)c1cc2c([nH]1)CCCC2", "Potency": "inconclusive: 3.16 µM [activator, single point]"}, {"smiles": "Cc1c(C(=O)N2CCOCC2)c(S(=O)(=O)Nc2ccc(C(C)C)cc2)c(C)n1C", "activation": "inactive: 0.0546%"}, {"smiles": "Cc1[nH]c2ccccc2c1CN1CCN(c2ccccn2)CC1", "Potency": "inconclusive: 35.5 µM [activator, single point]"}, {"smiles": "CC(=O)OCCNc1cc(SCc2ccco2)c2nonc2c1[N+](=O)[O-]", "activation": "inactive: 18.9%"}, {"smiles": "CCCCS(=O)(=O)c1oc(-c2ccc(F)cc2)nc1S(=O)(=O)c1ccccc1", "Potency": "inconclusive: 3.55 µM [activator, single point]"}, {"smiles": "COc1ccc(Br)cc1/C=N/NC(=O)c1ccco1", "Potency": "inconclusive: 14.1 µM [activator, partial curve, poor fit]"}, {"smiles": "O=C(Nc1cc(Cl)ccc1-n1cncn1)c1ccc([N+](=O)[O-])o1", "Potency": "active: 12.6 µM"}, {"smiles": "COC(=O)c1sc2cccc(F)c2c1S(=O)(=O)NCc1ccc(Cl)cc1", "Potency": "active: 11.2 µM"}, {"smiles": "COc1cccc(CNC(=O)CSC2=Nc3ccccc3C3=NC(C)C(=O)N23)c1OC", "note": "(stereo unspecified)", "activation": "inactive: -0.506%"}, {"smiles": "O=C(CC(Nc1ccccc1Cl)C(=O)O)c1ccccc1", "note": "(stereo unspecified)", "Potency": "inconclusive: 20 µM [activator, single point]"}, {"smiles": "Cn1c(=O)c2ccccc2n2c(CCl)nnc12", "Potency": "inconclusive: 31.6 µM [activator, single point]"}, {"smiles": "COC(=O)c1cc(=O)nc(NN=Cc2ccco2)s1", "Potency": "inconclusive: 3.16 µM [activator, partial curve, poor fit]"}, {"smiles": "CCSc1ncc(Cl)c(C(=O)N(Cc2ccccc2)Cc2ccco2)n1", "activation": "inactive: 0.412%"}, {"smiles": "O=C(CN1CCN(Cc2ccccc2)CC1)N/N=C\\C=C/c1ccco1", "Potency": "active: 6.31 µM"}, {"smiles": "C(=C\\c1nc(N2CCCC2)c2ccccc2n1)/c1ccccc1", "Potency": "inconclusive: 20 µM [activator, partial curve, poor fit]"}, {"smiles": "O=C(N/N=C1\\C/C(=N\\NC(=O)c2ccncc2)c2ccccc21)c1ccncc1", "Potency": "inconclusive: 11.2 µM [activator, partial curve, poor fit]"}]}]}
